Data on eight variants can be found in the supplement of paper PMC12217912.

Sequences and labels used below:
B1: TEV protease; numbered along this chain (parent)
chain: MGESLFKGPRDYNPISSSICHLTNESDGHTTSLYGIGFGPFIITNKHLFRRNNGTLVVQSLHGVFKVKDTTTLQQHLVDGRDMIIIRMPKDFPPFPQKLKFREPQREERICLVTTNFQTKSMSSMVSDTSCTFPSGDGIFWKHWIQTKDGQCGSPLVSTRDGFIVGIHSASNFTNTNNYFTSVPKNFMELLTNQEAQQWVSGWRLNADSVLWGGHKVFMVKPEEPFQPVKEATQL

The list shows a part of the results. Sequences were assembled here from the parent chain. Inactive controls read about 0.05.

In this experiment the parent is B1. The experiment in a line: raw area under fraction-flipped curve 0-4 h after induction (AUC4h, not background-subtracted), DNA-recorder readout of cleavage of the substrate (dimensionless); higher = more cleavage of the substrate by the protease variant. To be noted: temperature: 34 °C; time window: 0-4 h after rhamnose induction. The method, then:
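In vivo DNA recorder in E. coli TOP10(DE3) ΔrhaA at 34 °C. Each TEVp single-site mutant (parent TEVp 0) is paired with a single-site variant of the 7-mer TEVs (canonical ENLYFQ|S). The substrate sits between flexible linkers in a Bxb1-sfGFP-TEVs-SsrA fusion, so cleavage stabilises Bxb1 and speeds flipping of a recombination array, read by NGS. The value is the raw area under the fraction-flipped curve over 0-4 h after rhamnose induction (AUC4h), with ≥20 reads per time point. It is not background-subtracted; inactive controls average about 0.047.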
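Also: Bxb1 expression induced with 0.2% (w/v) L-rhamnose at OD600 near 0.5, cultures sampled hourly, flipped fraction per protease–substrate barcode pair counted by paired-end Illumina sequencing.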

Regarding MGESLFKGPRDYNPISSSICHLTNESDGHTTSLYGIGFGPFIITNKHLFRRNNGTLVVQSLHGVFKVKDTTTLQQHLVDGRDMIIIRMPKDFPPFPQKLKFREPQREERICLVTCNFQTKSMSSMVSDTSCTFPSGDGIFWKHWIQTKDGQCGSPLVSTRDGFIVGIHSASNFTNTNNYFTSVPKNFMELLTNQEAQQWVSGWRLNADSVLWGGHKVFMVKPEEPFQPVKEATQL [T115C], the “area with substrate ENLYFAS” value was determined as 0.0576, the “area with substrate ENLYFCS” value came out at 0.0543, the “area with substrate ENLYFDS” value came to 0.0699 and the “area with substrate ENLYFES” value came out at 0.0519. For the same variant, the “area with substrate ENLYFFS” value was 0.0811, the “area with substrate ENLYFHS” value is 0.0623, the “area with substrate ENLYFIS” value turned out to be 0.058 and the “area with substrate ENLYFKS” value is 0.0651. Further, the “area with substrate ENLYFLS” value came to 0.0689, the “area with substrate ENLYFMS” value came to 0.067, the “area with substrate ENLYFNS” value is 0.0769 and the “area with substrate ENLYFPS” value was determined as 0.0621. Also, the “area with substrate ENLYFRS” value amounted to 0.0591, the “area with substrate ENLYFSS” value stood at 0.0635, the “area with substrate ENLYFTS” value stood at 0.0534 and the “area with substrate ENLYFWS” value is 0.0634.

As for MGESLFKGPRDYNPISSSICHLTNESDGHTTSLYGIGFGPFIITNKHLFRRNNGTLVVQSLHGVFKVKDTTTLQQHLVDGRDMIIIRMPKDFPPFPQKLKFREPQREERICLNTTNFQTKSMSSMVSDTSCTFPSGDGIFWKHWIQTKDGQCGSPLVSTRDGFIVGIHSASNFTNTNNYFTSVPKNFMELLTNQEAQQWVSGWRLNADSVLWGGHKVFMVKPEEPFQPVKEATQL [V113N], the “area with substrate ENLYFAS” value came to 0.0522, the “area with substrate ENLYFCS” value worked out at 0.0574, the “area with substrate ENLYFDS” value was determined as 0.042 and the “area with substrate ENLYFES” value was 0.0541. Moreover, the “area with substrate ENLYFFS” value is 0.0591, the “area with substrate ENLYFHS” value is 0.0618, the “area with substrate ENLYFIS” value worked out at 0.0533 and the “area with substrate ENLYFKS” value came to 0.0452. Moreover, the “area with substrate ENLYFMS” value came to 0.0593, the “area with substrate ENLYFNS” value was 0.0327, the “area with substrate ENLYFPS” value is 0.0509 and the “area with substrate ENLYFRS” value worked out at 0.0684. Moreover, the “area with substrate ENLYFSS” value came to 0.0446, the “area with substrate ENLYFTS” value was 0.0528, the “area with substrate ENLYFVS” value turned out to be 0.0358 and the “area with substrate ENLYFWS” value was found to be 0.0603. Further, the “area with substrate ENLYFYS” value is 0.0487.

In the case of MGESLFKGPRDYNPISSSICHLTNESDGHTTSLYGIGFGPFIITNKHLFRRNNGTLVVQSLHGVFKVKDTTTLQQHLVDGRDMIIIRMPKDFPPFPQKLKFREPQREERICLLTTNFQTKSMSSMVSDTSCTFPSGDGIFWKHWIQTKDGQCGSPLVSTRDGFIVGIHSASNFTNTNNYFTSVPKNFMELLTNQEAQQWVSGWRLNADSVLWGGHKVFMVKPEEPFQPVKEATQL [V113L], the “area with substrate ENLYFAS” value turned out to be 0.0636, the “area with substrate ENLYFCS” value was found to be 0.0637, the “area with substrate ENLYFDS” value came out at 0.0792 and the “area with substrate ENLYFES” value turned out to be 0.06. The “area with substrate ENLYFFS” value stood at 0.0702, the “area with substrate ENLYFGS” value stood at 0.0521, the “area with substrate ENLYFHS” value was determined as 0.0663 and the “area with substrate ENLYFIS” value was 0.0623. The “area with substrate ENLYFKS” value is 0.0675, the “area with substrate ENLYFLS” value came to 0.0564, the “area with substrate ENLYFMS” value worked out at 0.0615 and the “area with substrate ENLYFNS” value came out at 0.0639. Moreover, the “area with substrate ENLYFPS” value was found to be 0.0632, the “area with substrate ENLYFSS” value was 0.066, the “area with substrate ENLYFTS” value was determined as 0.0731 and the “area with substrate ENLYFWS” value worked out at 0.0557.

As for MGESLFKGPRDYNPISSSICHLTNESDGHTTSLYGIGFGPFIITNKHLFRRNNGTLVVQSLHGVFKVKDTTTLQQHLVDGRDMIIIRMPKDFPPFPQKLKFREPQREERICLDTTNFQTKSMSSMVSDTSCTFPSGDGIFWKHWIQTKDGQCGSPLVSTRDGFIVGIHSASNFTNTNNYFTSVPKNFMELLTNQEAQQWVSGWRLNADSVLWGGHKVFMVKPEEPFQPVKEATQL [V113D], the “area with substrate ENLYFAS” value turned out to be 0.0554, the “area with substrate ENLYFES” value is 0.0714, the “area with substrate ENLYFFS” value stood at 0.0527 and the “area with substrate ENLYFIS” value was determined as 0.0444. Also, the “area with substrate ENLYFKS” value is 0.0604, the “area with substrate ENLYFMS” value is 0.0492, the “area with substrate ENLYFNS” value came to 0.0617 and the “area with substrate ENLYFPS” value is 0.0525. Moreover, the “area with substrate ENLYFRS” value came to 0.0486, the “area with substrate ENLYFSS” value was 0.071, the “area with substrate ENLYFTS” value stood at 0.0454 and the “area with substrate ENLYFVS” value turned out to be 0.0438. The “area with substrate ENLYFWS” value was determined as 0.0563 and the “area with substrate ENLYFYS” value is 0.0351.

As for MGESLFKGPRDYNPISSSICHLTNESDGHTTSLYGIGFGPFIITNKHLFRRNNGTLVVQSLHGVFKVKDTTTLQQHLVDGRDMIIIRMPKDFPPFPQKLKFREPQREERICLCTTNFQTKSMSSMVSDTSCTFPSGDGIFWKHWIQTKDGQCGSPLVSTRDGFIVGIHSASNFTNTNNYFTSVPKNFMELLTNQEAQQWVSGWRLNADSVLWGGHKVFMVKPEEPFQPVKEATQL [V113C], the “area with substrate ENLYFAS” value stood at 0.0618, the “area with substrate ENLYFCS” value is 0.0549, the “area with substrate ENLYFDS” value was 0.0506 and the “area with substrate ENLYFES” value turned out to be 0.0568. Also, the “area with substrate ENLYFFS” value was 0.0687, the “area with substrate ENLYFHS” value came out at 0.0663, the “area with substrate ENLYFIS” value was 0.0532 and the “area with substrate ENLYFLS” value was found to be 0.0871. Moreover, the “area with substrate ENLYFMS” value was determined as 0.0659, the “area with substrate ENLYFPS” value was 0.0422, the “area with substrate ENLYFTS” value was found to be 0.0668 and the “area with substrate ENLYFVS” value is 0.0578. Also, the “area with substrate ENLYFWS” value came to 0.0518 and the “area with substrate ENLYFYS” value came out at 0.0599.

As to MGESLFKGPRDYNPISSSICHLTNESDGHTTSLYGIGFGPFIITNKHLFRRNNGTLVVQSLHGVFKVKDTTTLQQHLVDGRDMIIIRMPKDFPPFPQKLKQREPQREERICLVTTNFQTKSMSSMVSDTSCTFPSGDGIFWKHWIQTKDGQCGSPLVSTRDGFIVGIHSASNFTNTNNYFTSVPKNFMELLTNQEAQQWVSGWRLNADSVLWGGHKVFMVKPEEPFQPVKEATQL [F101Q], the “area with substrate ENLYFAS” value turned out to be 0.0627, the “area with substrate ENLYFCS” value is 0.0564, the “area with substrate ENLYFDS” value was determined as 0.0553 and the “area with substrate ENLYFES” value came out at 0.0506. For the same variant, the “area with substrate ENLYFFS” value stood at 0.0591, the “area with substrate ENLYFHS” value turned out to be 0.0573, the “area with substrate ENLYFIS” value stood at 0.0561 and the “area with substrate ENLYFKS” value came to 0.0421. Also, the “area with substrate ENLYFLS” value is 0.0491, the “area with substrate ENLYFMS” value is 0.0541, the “area with substrate ENLYFNS” value turned out to be 0.0534 and the “area with substrate ENLYFPS” value was 0.0582. The “area with substrate ENLYFRS” value was 0.0616, the “area with substrate ENLYFSS” value stood at 0.039, the “area with substrate ENLYFTS” value was 0.0526 and the “area with substrate ENLYFWS” value worked out at 0.0489. Further, the “area with substrate ENLYFYS” value was 0.0478.

As for MGESLFKGPRDYNPISSSICHLTNESDGHTTSLYGIGFGPFIITNKHLFRRNNGTLVVQSLHGVFKVKDTTTLQQHLVDGRDMIIIRMPKDFPPFPQKLKFREPQREERIKLVTTNFQTKSMSSMVSDTSCTFPSGDGIFWKHWIQTKDGQCGSPLVSTRDGFIVGIHSASNFTNTNNYFTSVPKNFMELLTNQEAQQWVSGWRLNADSVLWGGHKVFMVKPEEPFQPVKEATQL [C111K], the “area with substrate ENLYFAS” value was determined as 0.0591, the “area with substrate ENLYFCS” value came out at 0.0606, the “area with substrate ENLYFES” value was found to be 0.0673 and the “area with substrate ENLYFFS” value stood at 0.0683. Also, the “area with substrate ENLYFHS” value is 0.068, the “area with substrate ENLYFIS” value came to 0.0629, the “area with substrate ENLYFKS” value came out at 0.0499 and the “area with substrate ENLYFLS” value worked out at 0.0561. Further, the “area with substrate ENLYFMS” value was found to be 0.0826, the “area with substrate ENLYFPS” value amounted to 0.0624, the “area with substrate ENLYFSS” value is 0.0575 and the “area with substrate ENLYFVS” value was found to be 0.0478. The “area with substrate ENLYFYS” value was 0.0836.

As to MGESLFKGPRDYNPISSSICHLTNESDGHTTSLYGIGFGPFIITNKHLFRRNNGTLVVQSLHGVFKVKDTTTLQQHLVDGRDMIIIRMPKDFPPFPQKLKFREPKREERICLVTTNFQTKSMSSMVSDTSCTFPSGDGIFWKHWIQTKDGQCGSPLVSTRDGFIVGIHSASNFTNTNNYFTSVPKNFMELLTNQEAQQWVSGWRLNADSVLWGGHKVFMVKPEEPFQPVKEATQL [Q105K], the “area with substrate ENLYFAS” value stood at 0.0617, the “area with substrate ENLYFCS” value worked out at 0.0577, the “area with substrate ENLYFDS” value was determined as 0.0557 and the “area with substrate ENLYFES” value turned out to be 0.0621. Also, the “area with substrate ENLYFFS” value was determined as 0.0659, the “area with substrate ENLYFGS” value worked out at 0.0727, the “area with substrate ENLYFHS” value stood at 0.0521 and the “area with substrate ENLYFIS” value amounted to 0.057. For the same variant, the “area with substrate ENLYFKS” value amounted to 0.0679, the “area with substrate ENLYFLS” value came out at 0.062, the “area with substrate ENLYFMS” value is 0.0736 and the “area with substrate ENLYFNS” value turned out to be 0.072. The “area with substrate ENLYFPS” value is 0.0609, the “area with substrate ENLYFRS” value was 0.037, the “area with substrate ENLYFSS” value was 0.0662 and the “area with substrate ENLYFTS” value was found to be 0.06. In addition, the “area with substrate ENLYFWS” value is 0.0681 and the “area with substrate ENLYFYS” value is 0.0571.
